Laboratory results reported in a collection of fitness landscapes (doi:10.1016/j.celrep.2020.107928).
Over roughly 81,000 sequences, “one-hybrid fitness for binding NBS DNA” has its median near -0.1; the highest 2% begin near 0.36. Some of the results follow.

B1: Caulobacter ParB omega fusion; a variant is named by its letters at X, in order, B8GW30 (parent)
chain: MESVVVGEPGMSEGRRGLGRGLSALLGEVDAAPAQAPGEQLGGSREAPIEILQRNPDQPRRTFREEDLEDLSNSIREKGVLQPILVRPSPDTAGEYQIVAGERAWRAAQRAGLKTVPIMVRELDDLAVLEIGIIENVQRADLNVLEEALSYKVLMEKFERTQENIAQTIGKSXSHVANXMRLLXLPDEVQSYLVSGELTAXHARAIAAAADPVALAKQIIEGGLSVRETEALARKAPNLSAGKSKGGRPPRVKDTDTQALESDLSSVLGLDVSIDHRGSTGTLTITYATLEQLDDLCNRLTRGI

Variants of: B1
Assay: one-hybrid fitness for binding NBS DNA (the Noc-binding site; scaled: cognate 1, non-cognate 0); higher = stronger binding
Settings: with NBS DNA site
In short: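 The reporter was HIS3, with the binding site 19 bp from the promoter, in E. coli USO used for bacterial one-hybrid selection of Caulobacter ParB libraries with four specificity codons randomised. Growth was on M9 lacking histidine, with 0.1 mM IPTG and 5 mM 3-AT, for 48 hours at 37°C. Illumina sequencing covered plasmids before and after selection; three replicate libraries were pooled and variants with under 10 reads dropped. A fitness score is the log change in variant-to-wild-type read ratio, rescaled to the cognate and non-cognate references.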

Variant | one-hybrid fitness for binding NBS DNA
PMFG | ≤ 0.2
WRYY | ≤ 0.2
VTSY | ≤ 0.2
SYYK | ≤ 0.2
FCMR | ≤ 0.2
HVGV | ≤ 0.2
AFST | ≤ 0.2
VLRA | ≤ 0.2
MNCR | ≤ 0.2
ATLA | ≤ 0.2
YSMS | ≤ 0.2
RART | 0.621
QMWI | ≤ 0.2
HNLV | ≤ 0.2
DEHC | ≤ 0.2
MTSE | ≤ 0.2
LLGH | ≤ 0.2
ADKL | ≤ 0.2
QNAF | ≤ 0.2
QEQT | ≤ 0.2
SRHE | ≤ 0.2
PFYT | ≤ 0.2
KPVK | ≤ 0.2
RPLR | ≤ 0.2

Variant | one-hybrid fitness for binding NBS DNA
AMFG | ≤ 0.2
RACK | ≤ 0.2
RFLA | ≤ 0.2
DSKV | ≤ 0.2
QELT | ≤ 0.2
WSTS | ≤ 0.2
LTRH | ≤ 0.2
SAIG | ≤ 0.2
VTWW | ≤ 0.2
ADTW | ≤ 0.2
YVIV | ≤ 0.2
AQGG | ≤ 0.2
LDNV | ≤ 0.2
TERC | ≤ 0.2
ERNG | ≤ 0.2
PRPD | ≤ 0.2
YPCT | ≤ 0.2
SHRC | ≤ 0.2
QRNN | 0.459
HKQG | ≤ 0.2
AHTV | ≤ 0.2
KPSK | ≤ 0.2
RWDS | ≤ 0.2
RYGA | ≤ 0.2

Variant | one-hybrid fitness for binding NBS DNA
TRWW | ≤ 0.2
QLEP | ≤ 0.2
APWM | ≤ 0.2
QKWW | ≤ 0.2
KTIR | ≤ 0.2
RMME | ≤ 0.2
YLIT | ≤ 0.2
ARHR | ≤ 0.2
HAFT | ≤ 0.2
WIVR | ≤ 0.2
MSTN | ≤ 0.2
QSHY | 0.201
RVQC | ≤ 0.2
CVST | ≤ 0.2
SLSA | ≤ 0.2
LQLV | ≤ 0.2
QDQD | ≤ 0.2
GGSC | ≤ 0.2
QGCV | ≤ 0.2
GCRS | ≤ 0.2
DARL | ≤ 0.2
WYCF | ≤ 0.2
HQRE | ≤ 0.2
WILQ | ≤ 0.2

Variant | one-hybrid fitness for binding NBS DNA
AIWR | ≤ 0.2
QKMM | ≤ 0.2
HAHI | ≤ 0.2
CCMS | ≤ 0.2
ESHT | ≤ 0.2
PQSM | ≤ 0.2
DDCW | ≤ 0.2
GHAN | ≤ 0.2
APKL | ≤ 0.2
TYKY | ≤ 0.2
HMIG | ≤ 0.2
QIVF | ≤ 0.2
SMCV | ≤ 0.2
IPGQ | ≤ 0.2
TLYA | ≤ 0.2
ATQY | ≤ 0.2
AKPC | ≤ 0.2
ATAM | ≤ 0.2
PCRQ | ≤ 0.2
NRRM | ≤ 0.2
QQNS | 0.515
LRVK | ≤ 0.2
CSHD | ≤ 0.2
CSCN | ≤ 0.2

Variant | one-hybrid fitness for binding NBS DNA
NWGR | ≤ 0.2
DHWG | ≤ 0.2
DWQS | ≤ 0.2
EFRT | ≤ 0.2
HGAV | ≤ 0.2
PMIS | ≤ 0.2
HVQW | ≤ 0.2
SFQC | ≤ 0.2
AVGY | ≤ 0.2
RRIM | ≤ 0.2
TSMG | ≤ 0.2
IGYS | ≤ 0.2
HSMD | ≤ 0.2
QPMI | ≤ 0.2
QWST | ≤ 0.2
KLWL | ≤ 0.2
YMVR | ≤ 0.2
KRTM | ≤ 0.2
KPGL | ≤ 0.2
KIKT | ≤ 0.2
HASL | ≤ 0.2
CGKV | ≤ 0.2
IHTR | ≤ 0.2
DVPG | ≤ 0.2

Variant | one-hybrid fitness for binding NBS DNA
TENN | ≤ 0.2
GTDC | ≤ 0.2
NVIT | ≤ 0.2
NCVL | ≤ 0.2
RMIS | 0.238
IDSC | ≤ 0.2
TCNM | ≤ 0.2
WGGV | ≤ 0.2
ITYC | ≤ 0.2
YTTM | ≤ 0.2
MRHR | ≤ 0.2
RCWV | ≤ 0.2
DQAG | ≤ 0.2
TSGL | ≤ 0.2
PGYP | ≤ 0.2
PAYV | ≤ 0.2
ADQI | ≤ 0.2
RVLH | ≤ 0.2
LFYG | ≤ 0.2
ASIF | ≤ 0.2
VTFT | ≤ 0.2
DLEE | ≤ 0.2
TQLI | ≤ 0.2
KCCR | ≤ 0.2

Variant | one-hybrid fitness for binding NBS DNA
TVWC | ≤ 0.2
RCDP | ≤ 0.2
MNQG | ≤ 0.2
AKFG | ≤ 0.2
HNFP | ≤ 0.2
FYST | ≤ 0.2
PVKL | ≤ 0.2
CRGY | ≤ 0.2
WYDR | ≤ 0.2
SSKC | ≤ 0.2
CCPV | ≤ 0.2
NSPN | ≤ 0.2
DITK | ≤ 0.2
LKMT | ≤ 0.2
KGNF | ≤ 0.2
LHQP | ≤ 0.2
RQVY | ≤ 0.2
PTAP | ≤ 0.2
CFGR | ≤ 0.2
QMLA | 0.22
RMTM | ≤ 0.2
TLMC | ≤ 0.2
GNLC | ≤ 0.2
QATK | ≤ 0.2

Variant | one-hybrid fitness for binding NBS DNA
RTKG | 0.223
DHRW | ≤ 0.2
FDLT | ≤ 0.2
CTMM | ≤ 0.2
DWAS | ≤ 0.2
SNHY | ≤ 0.2
NSTC | ≤ 0.2
QTQL | ≤ 0.2
EMES | ≤ 0.2
RCIH | ≤ 0.2
VHFG | ≤ 0.2
QMIN | ≤ 0.2
KRHP | ≤ 0.2
YKTY | ≤ 0.2
GSDS | ≤ 0.2
SLEE | ≤ 0.2
PGYT | ≤ 0.2
LDIC | ≤ 0.2
DVCI | ≤ 0.2
FHSS | ≤ 0.2
LPHA | ≤ 0.2
GGKG | ≤ 0.2
QPDE | ≤ 0.2
WLDC | ≤ 0.2

Variant | one-hybrid fitness for binding NBS DNA
REEI | ≤ 0.2
DGCC | ≤ 0.2
QCWL | ≤ 0.2
PAHI | ≤ 0.2
VVHG | ≤ 0.2
CYTN | ≤ 0.2
PQHG | ≤ 0.2
WSAH | ≤ 0.2
TCFG | ≤ 0.2
NVNI | ≤ 0.2
LKCC | ≤ 0.2
DSFT | ≤ 0.2
WARS | ≤ 0.2
PRKM | ≤ 0.2
SFPC | ≤ 0.2
VRLG | ≤ 0.2
APKC | ≤ 0.2
NLKR | ≤ 0.2
TRWR | ≤ 0.2
VESD | ≤ 0.2
VFVN | ≤ 0.2
MSSN | ≤ 0.2
NPAR | ≤ 0.2
SQVL | ≤ 0.2

Variant | one-hybrid fitness for binding NBS DNA
CCSQ | ≤ 0.2
QGNS | ≤ 0.2
HQTD | ≤ 0.2
ECSS | ≤ 0.2
QIIV | ≤ 0.2
DRYV | ≤ 0.2
PNWA | ≤ 0.2
PDYI | ≤ 0.2
CETR | ≤ 0.2
MIHW | ≤ 0.2
INGS | ≤ 0.2
DEDM | ≤ 0.2
NMHV | ≤ 0.2
VTPT | ≤ 0.2
CNFS | ≤ 0.2
CALF | ≤ 0.2
HLDC | ≤ 0.2
MHHY | ≤ 0.2
SNAG | ≤ 0.2
WRRT | ≤ 0.2
FHTG | ≤ 0.2
DLTR | ≤ 0.2
AGNY | ≤ 0.2
GASI | ≤ 0.2

Variant | one-hybrid fitness for binding NBS DNA
TRSQ | ≤ 0.2
RADF | ≤ 0.2
LCLI | ≤ 0.2
NPTT | ≤ 0.2
NNRW | ≤ 0.2
FDAY | ≤ 0.2
DMTC | ≤ 0.2
AQMF | ≤ 0.2
TVYF | ≤ 0.2
LRKG | ≤ 0.2
SHPG | ≤ 0.2
MTRA | ≤ 0.2
KLCR | ≤ 0.2
YEYV | ≤ 0.2
RKPM | ≤ 0.2
LCHR | ≤ 0.2
TFRW | ≤ 0.2
VQQM | ≤ 0.2
MEVE | ≤ 0.2
KADG | ≤ 0.2
PNTH | ≤ 0.2
MMAT | ≤ 0.2
EARY | ≤ 0.2
PRHI | ≤ 0.2

Variant | one-hybrid fitness for binding NBS DNA
SYCC | ≤ 0.2
MRIM | ≤ 0.2
AMAK | ≤ 0.2
RHRS | 0.585
VLPC | ≤ 0.2
RMEY | ≤ 0.2
REAR | ≤ 0.2
HPHV | ≤ 0.2
KSLY | ≤ 0.2
PIYL | ≤ 0.2
YAFS | ≤ 0.2
ISPH | ≤ 0.2
VPTL | ≤ 0.2
PSYK | ≤ 0.2
KAVL | ≤ 0.2
HVKS | ≤ 0.2
LWMS | ≤ 0.2
VPSC | ≤ 0.2
IHPY | ≤ 0.2
CLFD | ≤ 0.2
RGKE | ≤ 0.2
WYTG | ≤ 0.2
RESE | ≤ 0.2
HEWR | ≤ 0.2

Variant | one-hybrid fitness for binding NBS DNA
HDCR | ≤ 0.2
HSQF | ≤ 0.2
GAAG | ≤ 0.2
LWIV | ≤ 0.2
MHRT | ≤ 0.2
SRMQ | ≤ 0.2
GEVY | ≤ 0.2
CVPT | ≤ 0.2
LIIV | ≤ 0.2
GVHP | ≤ 0.2
MNSE | ≤ 0.2
WRER | ≤ 0.2
GFIR | ≤ 0.2
RPHM | ≤ 0.2
PDCR | ≤ 0.2
EDAS | ≤ 0.2
SRHY | ≤ 0.2
RRVE | ≤ 0.2
